# Reference: the supplement of paper PMC3334620
# Over roughly 33,000 sequences, “E-score (-0.5 to 0.5)” has its median near -0.035; the highest 2% begin near 0.35. Some of the results follow.
# Target: T1, Pdr3 (UniProt P33200)
# T1 sequence: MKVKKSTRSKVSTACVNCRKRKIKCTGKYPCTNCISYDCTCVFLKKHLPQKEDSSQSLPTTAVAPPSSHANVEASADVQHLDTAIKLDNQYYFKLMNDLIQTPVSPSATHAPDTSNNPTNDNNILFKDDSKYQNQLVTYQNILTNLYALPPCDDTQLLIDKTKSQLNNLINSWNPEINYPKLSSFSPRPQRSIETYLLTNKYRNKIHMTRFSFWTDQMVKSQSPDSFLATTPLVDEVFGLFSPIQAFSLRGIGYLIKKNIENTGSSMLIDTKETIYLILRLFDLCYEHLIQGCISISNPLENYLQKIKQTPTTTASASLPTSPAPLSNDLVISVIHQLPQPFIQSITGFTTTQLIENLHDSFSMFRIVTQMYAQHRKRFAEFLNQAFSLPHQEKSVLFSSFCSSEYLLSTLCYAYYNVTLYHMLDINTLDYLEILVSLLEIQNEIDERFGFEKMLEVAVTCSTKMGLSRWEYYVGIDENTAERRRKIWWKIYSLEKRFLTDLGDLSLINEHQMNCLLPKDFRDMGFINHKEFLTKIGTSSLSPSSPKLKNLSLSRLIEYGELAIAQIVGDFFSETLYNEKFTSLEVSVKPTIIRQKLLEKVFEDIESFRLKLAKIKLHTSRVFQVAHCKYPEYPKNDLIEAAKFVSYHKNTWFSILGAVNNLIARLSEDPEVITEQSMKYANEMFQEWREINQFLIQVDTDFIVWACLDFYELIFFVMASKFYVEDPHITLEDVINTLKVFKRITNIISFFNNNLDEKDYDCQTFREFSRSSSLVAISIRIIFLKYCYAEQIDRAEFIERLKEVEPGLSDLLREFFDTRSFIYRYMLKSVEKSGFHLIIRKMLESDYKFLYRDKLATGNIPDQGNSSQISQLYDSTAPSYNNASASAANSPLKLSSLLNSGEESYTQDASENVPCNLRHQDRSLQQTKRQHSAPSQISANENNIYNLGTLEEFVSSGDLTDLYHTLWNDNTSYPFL
# Assay: PBM E-score (8-mer binding enrichment) (E-score (-0.5 to 0.5)); higher = stronger / more preferred TF binding; most listed sequences are background and not binding sites
# Conditions: protein concentration: 200 nM; construct: GST-full length
# Outline: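 Using PURExpress in vitro transcription/translation, GST-tagged yeast transcription factors were made in full-length or DNA-binding-domain form. These were applied at about 100-200 nM to double-stranded universal all-10-mer Agilent arrays, and bound protein was detected with fluorescent anti-GST. Scans were normalised with masliner before the Universal PBM Analysis Suite assigned E-scores to ungapped eight-base words pooled with their reverse complements.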
row,Sequence,PBM E-score
1,AGATTCGG,0.161
2,GACGGATA,0.251
3,ATCGCTTA,-0.254
4,TCCGATAA,0.289
5,AGTGGATA,0.117
6,GAGTATGA,0.166
7,ACTATTGA,-0.0249
8,CTGAATAA,-0.112
9,TAATTATA,0.217
10,GGCGAAGA,0.103
11,AGACGGGG,0.101
12,GTCGTTAA,-0.102
13,CCCAAAAC,-0.00477
14,AGCCCCTC,-0.011
15,CATTATGA,-0.161
16,CACTAGTG,-0.0719
17,CGCACTAC,0.0185
18,CCAGCTTC,0.0568
19,CCCCTACG,-0.307
20,CACGGTAG,-0.115
21,ACCACTTG,-0.0862
22,CAAGGATA,-0.0589
23,ATCGCACG,-0.207
24,GAGCGATC,-0.00897
25,TCGGCAAA,-0.0471

row,Sequence,PBM E-score
1,AAGCGCGA,0.0804
2,GACATAGC,-0.0234
3,CTTCCATC,0.0277
4,GATCTTGC,0.18
5,CGACCAGA,-0.0251
6,ATCAGTTG,-0.0997
7,ATAACCCC,0.0666
8,CAGTACTA,-0.139
9,CCGTGTAC,0.199
10,ATCGGGGC,-0.0418
11,ACCAAGGA,0.0326
12,AATAGACT,-0.247
13,ACTCTCCC,0.159
14,AATTCCTC,0.0037
15,CCTATATC,-0.0312
16,GTCGTGGA,-0.0456
17,ACATGAGT,-0.248
18,ACTTGAGC,-0.272
19,GATTTTAC,-0.0975
20,GGAACGAC,0.0731
21,GACGAAGC,-0.0363
22,CATCCCCC,0.0287
23,CGTCCGAC,0.109
24,ATATAGTA,0.0137
25,GCCGCGAA,0.112

row,Sequence,PBM E-score
1,CTAATAGA,-0.0107
2,ACAAGACC,-0.101
3,AAGTAGAA,-0.153
4,ACCAGGAG,-0.124
5,CGAAATAG,0.0496
6,CTCGAAGC,-0.144
7,TCTGCGCA,0.00827
8,CTCATAAG,-0.173
9,AGAGGTAC,-0.0729
10,AGCTATAG,-0.332
11,CGACTACA,-0.168
12,AGCAAAGA,-0.0461
13,GGGGGTAC,-0.0958
14,GAAATTTC,0.084
15,AGGACCGC,0.191
16,GAGTACTA,0.0457
17,GCAAGCGA,-0.035
18,CGACAACC,0.023
19,AACCAAGA,-0.0287
20,AAGGGATA,-0.206
21,CAGCTCGC,0.0477
22,AGTTGAAT,-0.0179
23,AAAGAGCT,-0.133
24,TCCACCAA,-0.0674
25,AATTTCTC,0.135

row,Sequence,PBM E-score
1,ATGGACTG,-0.163
2,CTGAAAGC,-0.0151
3,AGTGGCAA,-0.049
4,ATAAGTCG,0.123
5,AACCCTCC,-0.0905
6,GGGTAGGA,0.123
7,CTAAAGGA,-0.0754
8,CCGAACGG,0.32
9,CTCCACAA,-0.22
10,GCCCAAAA,-0.0889
11,ATTTTTTG,0.0165
12,CGTGCGCC,0.239
13,ATGTGCGA,-0.0762
14,GCGGATAC,0.311
15,ATTGGTCC,0.169
16,CACCAAGA,-0.107
17,ATGGCGGA,0.279
18,AACGTTGG,-0.0419
19,AGGAGACT,-0.263
20,CACGCTCA,0.0533
21,ACGTCGTG,-0.0757
22,CCCCACAG,-0.347
23,GATCTACC,0.00285
24,GTTCCTCA,0.0277
25,AGCAATAG,-0.0578

row,Sequence,PBM E-score
1,AACATACA,-0.177
2,CGGCTTAA,0.314
3,ACCGTGCG,0.0528
4,GTAGGCAA,-0.291
5,AGAGGCTA,-0.169
6,CAGTCATG,-0.0684
7,CAATACTA,-0.161
8,CTTAGAAG,-0.272
9,AACGACTT,-0.331
10,GACTCCTA,-0.211
11,AGCGTATG,-0.118
12,AGCATCGC,-0.00236
13,AAACGTTG,-0.142
14,CCCGGGTA,0.438
15,CATTCTAC,-0.206
16,CGTAGCTA,-0.168
17,AATAATCC,0.086
18,GTACCTAA,-0.291
19,ACCCGCCC,0.348
20,AACTCTGG,-0.0918
21,CTGGCTAC,-0.186
22,CGGGCTGC,0.211
23,GATTTATA,0.0785
24,AACCCTGC,-0.0701
25,CACATATG,-0.331

row,Sequence,PBM E-score
1,ACAATCCT,-0.131
2,ATGTGTCA,-0.177
3,AGTTTCCA,0.0305
4,ATTGCTGG,-0.163
5,ACGTCTTG,-0.178
6,TATCCACA,-0.09
7,CTATGGAC,-0.134
8,CTGCGAAA,-0.0331
9,CGATCACC,0.0507
10,ACGACTCT,-0.201
11,AGCTGACT,-0.00609
12,CTGTAGTA,-0.0687
13,AGCACTAG,-0.211
14,GTTCATCA,-0.0341
15,GCAGATAC,0.0171
16,CTGATATA,-0.168
17,CCGGCGTA,0.236
18,GATTTTTA,0.00282
19,CCTTCGAG,-0.131
20,AACGTGCA,-0.101
21,GATAGCCC,-0.0993
22,CATCTGGA,0.0298
23,CTGTATCA,-0.224
24,GAAGAATC,0.194
25,CACTCTGA,-0.122

row,Sequence,PBM E-score
1,CAGTTCGA,-0.0829
2,ATTGTTGG,0.103
3,AGTGGGAA,0.00546
4,CGATACCA,0.0304
5,ACATTCTA,-0.24
6,AACCGTGC,0.0658
7,CCAATAGA,-0.0305
8,CTGACTAA,0.0466
9,CGGTAGCC,0.132
10,GGGTATAA,0.00025
11,GACTACCA,-0.201
12,CCGGGTAA,0.397
13,GAGGCTGC,0.0172
14,CGAGCCCC,-0.0391
15,GTAGCTAC,-0.115
16,CCGCCTAG,0.0446
17,AATGGTCC,0.183
18,AGCAGTAG,-0.236
19,AAGCGCAA,0.0102
20,AGACCAGA,-0.201
21,GATCCGCC,0.331
22,ACTGTGGA,-0.229
23,AGGGAGGA,-0.291
24,ATTCCCTG,0.017
25,CGCCTGAC,0.0819

row,Sequence,PBM E-score
1,GTCGAGCA,-0.326
2,AGACGACT,-0.0111
3,GGATATCC,0.262
4,GAATATCC,0.17
5,ATTGCTAA,-0.133
6,CACATTAG,-0.159
7,CGGAACTA,0.473
8,CGGTGGAA,0.086
9,GAAGATAA,0.164
10,CAAGTCAG,-0.117
11,AACTTAAG,-0.229
12,AGGGAAAG,-0.106
13,ACGCAACT,-0.0132
14,CTTGGATC,0.00749
15,ATCTGCGA,-0.171
16,CCCGATCG,0.234
17,ATGGAGTC,0.174
18,GAACTGCC,0.146
19,GACCGATA,0.0564
20,CAAACGCA,-0.165
21,CATTGGAG,-0.0295
22,CGGTGCTA,0.0307
23,CATCTAAC,-0.0779
24,AGCCCGGA,0.355
25,CATATTGA,-0.18

row,Sequence,PBM E-score
1,ATACATTC,-0.117
2,CTAGGCAA,-0.138
3,GACTTGCC,-0.124
4,AATGACAG,-0.233
5,ACAAGAGA,-0.0417
6,CTCTGTCC,-0.0549
7,CATCACGA,-0.274
8,AATGACTC,-0.227
9,GTAACTAA,0.0981
10,CGGGTGCA,0.261
11,CAGTGGGC,-0.0874
12,CAATGGCC,-0.0441
13,CCCCTGCA,-0.0201
14,GACATCAC,-0.031
15,ACACTAAA,0.022
16,AGCGCGTC,-0.0362
17,GCAGCACC,-0.149
18,CGTTAGAA,-0.138
19,ACTTCCTA,-0.0935
